According to the supplement of paper PMC10126150:
Sequences with one replicate were seen in a single cluster, so their values are uncertain.

System: ATP
Assay: switch fluorescence ratio, 500 uM ATP over buffer (Cy3 cluster intensity, sum of 5 cycles each) (fold (ratio)); higher = stronger signal-on switching upon ATP binding; sequences stand for … in TCGTCGGCAGCGTCAGATGTGTATAAGAGACAGTTTTTTTTTTTTTTTTTTTTTTTTT…TC
Details: aptamer strand: ATP DNA aptamer (quencher-CACCTGGGGGAGTATTGCGGAGGAAGG + anchor), 100 nM annealed; ATP concentration: 500 uM; one replicate
Procedure, shortened: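 Cy3-labelled switching-strand clusters on a modified Illumina MiSeq flow-cell were annealed to 100 nM quencher-labelled ATP aptamer, imaged in selection buffer, then imaged after 15 min with 500 uM ATP at 22 °C. Five buffer/ATP cycles ran, with NaOH stripping and re-annealing between them. The fluorescence ratio is summed target-cycle over summed buffer-cycle Cy3 intensity per cluster, averaged per switch-domain sequence. Clusters outside 100-1000 RFU were excluded.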
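Note: ATP exposure 15 min at 22 °C before imaging.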

| Sequence | switch fluorescence ratio |
| --- | --- |
| AAGTTGCGT | 1.03 |
| AAGTTGGAGA | 0.988 |
| AAGTTTCTC | 1.01 |
| AAGTTTGGCG | 1.18 |
| AAGTTTGGTC | 0.921 |
| AAGTTTTCGA | 0.993 |
| AATAAATGGC | 1.01 |
| AATAACGGAG | 0.957 |
| AATAACGGCC | 1.05 |
| AATAATCCCA | 1.02 |
| AATAATGGCG | 0.915 |
| AATAATTATT | 1.01 |
| AATAATTCAA | 0.975 |
| AATAATTGGA | 0.97 |
| AATACAAAAC | 1.04 |
| AATACAAACT | 1.14 |
| AATACAGTTG | 0.995 |
| AATACCCTCT | 1.09 |
| AATACCCTTG | 1.04 |
| AATACCGCTA | 1.55 |
| AATAGAATGT | 1 |
| AATAGATCAG | 0.963 |
| AATAGATGTT | 1.03 |
| AATAGATTCA | 0.992 |
| AATAGCGTCG | 1 |

| Sequence | switch fluorescence ratio |
| --- | --- |
| AATAGCGTTG | 1.01 |
| AATAGGA | 0.977 |
| AATAGGCGTT | 1.01 |
| AATAGGTGCC | 1.03 |
| AATAGGTTCG | 0.956 |
| AATAGTCGAC | 1.02 |
| AATAGTGTTT | 0.972 |
| AATATAAATT | 1.02 |
| AATATAAGAT | 1.03 |
| AATATAAGGG | 1.04 |
| AATATATGAA | 1 |
| AATATCTATT | 0.995 |
| AATATCTTCG | 1.07 |
| AATATGGACC | 1.02 |
| AATATTGGAC | 0.997 |
| AATCAACGAC | 1.12 |
| AATCACGTCG | 0.991 |
| AATCACTGGT | 1.02 |
| AATCACTTTC | 1.1 |
| AATCAGTGTG | 1.01 |
| AATCATATTG | 0.971 |
| AATCATCGGC | 1.03 |
| AATCATTCTA | 0.974 |
| AATCATTTCC | 1.18 |
| AATCCCGAGG | 1.14 |

| Sequence | switch fluorescence ratio |
| --- | --- |
| AATCCGACGT | 1.98 |
| AATCCGGCGG | 1.01 |
| AATCCGTGGG | 1.01 |
| AATCCTTCTT | 1.11 |
| AATCGACTCG | 0.986 |
| AATCGAGAAG | 0.98 |
| AATCGCGTAT | 0.966 |
| AATCGGGTCG | 0.967 |
| AATCGTGAAA | 1 |
| AATCTAGAAG | 1.01 |
| AATCTCTTTG | 0.996 |
| AATCTGAGCA | 1.04 |
| AATCTTGCTG | 0.971 |
| AATCTTGTTA | 1 |
| AATGAACTCC | 1.04 |
| AATGAACTTT | 0.964 |
| AATGAATGCC | 0.956 |
| AATGACCTAC | 1.25 |
| AATGACGAAC | 1.38 |
| AATGAGCATT | 0.983 |
| AATGAGCCTT | 1.04 |
| AATGAGCGTA | 1.06 |
| AATGAGTGCG | 0.989 |
| AATGAGTTAG | 1 |
| AATGAGTTGG | 1.01 |

| Sequence | switch fluorescence ratio |
| --- | --- |
| AATGATGGGC | 0.99 |
| AATGATTTAA | 1.01 |
| AATGATTTTT | 0.995 |
| AATGCAAACC | 1.16 |
| AATGCAATAG | 3.76 |
| AATGCCATAG | 1.02 |
| AATGCCGTGC | 0.985 |
| AATGCGGTGT | 1.05 |
| AATGCTAATT | 1.04 |
| AATGCTCG | 1.06 |
| AATGGAACGC | 0.987 |
| AATGGAATGC | 1.06 |
| AATGGAGATC | 0.979 |
| AATGGCCGGG | 0.954 |
| AATGGGAGGT | 1.03 |
| AATGGGTTAG | 0.964 |
| AATGGTATAG | 0.982 |
| AATGGTCTTG | 0.997 |
| AATGTAACTC | 1.02 |
| AATGTACATC | 1.06 |
| AATGTATACC | 1.02 |
| AATGTATCTT | 1 |
| AATGTCACTA | 1.04 |
| AATGTCGGCA | 1.02 |
| AATGTCTTCC | 1.84 |

| Sequence | switch fluorescence ratio |
| --- | --- |
| AATGTGCATC | 0.959 |
| AATGTGGAAA | 1.01 |
| AATGTGGCGG | 0.997 |
| AATGTGGCTG | 1.01 |
| AATGTGTGTG | 0.974 |
| AATGTTATGA | 1.06 |
| AATGTTCCTT | 1.04 |
| AATGTTGGCT | 0.977 |
| AATGTTTGAA | 1.04 |
| AATTAAAAT | 0.998 |
| AATTAAATGG | 1.01 |
| AATTAAATTG | 0.96 |
| AATTAACATT | 1.04 |
| AATTAAGAGT | 1 |
| AATTAATAT | 1.01 |
| AATTAGTAGA | 0.991 |
| AATTATAGAG | 1 |
| AATTATATAT | 0.994 |
| AATTATGACT | 1.54 |
| AATTATGGAG | 1.02 |
| AATTATTTG | 1 |
| AATTCACAA | 1.04 |
| AATTCACTTC | 1.03 |
| AATTCAGGCT | 0.977 |
| AATTCAGGGT | 0.999 |

| Sequence | switch fluorescence ratio |
| --- | --- |
| AATTCGAGGA | 1.01 |
| AATTCGCTCG | 0.988 |
| AATTCGGGTG | 1.04 |
| AATTCTAACT | 1.01 |
| AATTCTTAGC | 0.916 |
| AATTCTTTTT | 0.98 |
| AATTGAAATT | 1.01 |
| AATTGACGGC | 1.15 |
| AATTGAGCAG | 0.97 |
| AATTGCTTCT | 0.99 |
| AATTGGACTT | 1.01 |
| AATTGGCAGA | 1 |
| AATTGGTCGA | 1.03 |
| AATTGTATGA | 0.994 |
| AATTGTCTCG | 0.995 |
| AATTTACTTG | 1.03 |
| AATTTATGTT | 0.957 |
| AATTTCAACC | 1.03 |
| AATTTCATGG | 0.964 |
| AATTTCCAGC | 1.01 |
| AATTTCTGAC | 1.12 |
| AATTTGACAG | 1.02 |
| AATTTGAGCG | 0.962 |
| AATTTTACAG | 0.992 |
| AATTTTATAG | 0.99 |

| Sequence | switch fluorescence ratio |
| --- | --- |
| AATTTTTACG | 1.01 |
| ACAAAACTAC | 1.12 |
| ACAAAAGTAC | 1.12 |
| ACAAAAGTTA | 1.07 |
| ACAAAATAA | 1 |
| ACAAACTTTA | 1.09 |
| ACAAAGTCAT | 1 |
| ACAAAGTGCG | 1.03 |
| ACAACAAAAG | 1.03 |
| ACAACAAAGT | 1.01 |
| ACAACACAAA | 1.2 |
| ACAACAGGAT | 0.981 |
| ACAACCTAG | 1.08 |
| ACAACGAACG | 1.2 |
| ACAACTGAGA | 1.05 |
| ACAAGAAAAA | 1.2 |
| ACAAGAATTT | 0.98 |
| ACAAGAGCTG | 1.06 |
| ACAAGCTTAT | 1.06 |
| ACAAGGAAAG | 0.966 |
| ACAAGTTATG | 0.929 |
| ACAAGTTTA | 0.982 |
| ACAATCGTTC | 0.982 |
| ACAATCTTTC | 1.07 |
| ACAATGCTCA | 1.48 |

| Sequence | switch fluorescence ratio |
| --- | --- |
| ACAATGTACC | 1.15 |
| ACAATGTTCC | 1.14 |
| ACAATTACCT | 1.32 |
| ACAATTAGC | 1.01 |
| ACAATTGGAT | 1.01 |
| ACACACACTT | 1.37 |
| ACACACCCTA | 1.23 |
| ACACAGCAAT | 4.96 |
| ACACAGGGGC | 1.04 |
| ACACAGTGGC | 1.05 |
| ACACAGTTCC | 1.08 |
| ACACATCTGC | 1.08 |
| ACACATGCCT | 1.05 |
| ACACCACGTG | 1.13 |
| ACACCACTAA | 1.24 |
| ACACCAGCAC | 1.02 |
| ACACCCAGTT | 1.26 |
| ACACCCATGG | 1.21 |
| ACACCCCAGA | 1.35 |
| ACACCCTATG | 1.1 |
| ACACGCACTC | 1.58 |
| ACACGGAGTC | 0.995 |
| ACACTAACGT | 1.44 |
| ACACTAGCTG | 1.04 |
| ACACTAGGGT | 1.01 |
